Measured values published in the supplement of paper PMC8813932.
Structures can show the parent of a compound that is named as a salt. ± gives the standard deviation of the averaged measurements. The list shows a part of the results. Single values are uncertain, as repeats are few or missing.

Each compound was assayed on OVCAR4 (assay: log2 surviving fraction relative to plate median (drug vs vehicle, or drug+dl922-947 vs dl922-947 alone); ovarian cancer lines: OVCAR4 is platinum-sensitive while Ov4Cis resists cisplatin and Ov4Carbo carboplatin; higher = more cell survival). Settings: dl922-947 oncolytic adenovirus co-treatment: MOI 10; compound concentration: 10 uM; 192 h.

| Structure (SMILES) | log2 surviving fraction |
| --- | --- |
| NCCCC(O)(P(=O)(O)O)P(=O)(O)O [Alendronate (Fosamax)] | 0.0692 ± 0.55 |
| NCCc1c[nH]c2ccc(O)cc12 [Serotonin HCl] | 0.998 ± 0.45 |
| COc1ccc(CC2c3cc(OC)c(OC)cc3CC[N+]2(C)CCC(=O)OCCCCCOC(=O)CC[N+]2(C)CCc3cc(OC)c(OC)cc3C2Cc2ccc(OC)c(OC)c2)cc1OC (stereo not given) [Atracurium besylate] | 0.488 ± 0.42 |
| Nc1nc(F)nc2c1ncn2[C@@H]1O[C@H](COP(=O)(O)O)[C@@H](O)[C@@H]1O [Fludarabine Phosphate (Fludara)] | 0.318 ± 1.6 |
| NCC[C@H](O)C(=O)N[C@@H]1C[C@H](N)[C@@H](O[C@H]2O[C@H](CN)[C@@H](O)[C@H](O)[C@H]2O)[C@H](O)[C@H]1O[C@H]1O[C@H](CO)[C@@H](O)[C@H](N)[C@H]1O [Amikacin sulfate] | 0.844 ± 1 |
| O[C@@H]1CO[C@H]2[C@@H]1OC[C@@H]2O [Isosorbide] | -0.141 ± 0.034 |
| C=C[C@H]1CN2CC[C@H]1C[C@H]2[C@H](O)c1ccnc2ccc(OC)cc12 [Quinine hydrochloride dihydrate] | -0.113 ± 0.23 |
| Fc1ccc(C(c2ccc(F)cc2)N2CCN(C/C=C/c3ccccc3)CC2)cc1 [Flunarizine 2HCl] | -1.85 ± 0.11 |
| CC(=O)[C@H]1CC[C@H]2[C@@H]3C[C@H](C)C4=CC(=O)CC[C@]4(C)[C@H]3[C@@H](O)C[C@]12C [Medrysone] | 1.36 ± 0.11 |
| O=C(NC(Cc1cc(=O)[nH]c2ccccc12)C(=O)O)c1ccc(Cl)cc1 (stereo not given) [Rebamipide] | -0.798 ± 0.062 |
| Nc1c2ccccc2nc2ccccc12 [9-Aminoacridine] | -8.56 ± 1.1 |
| Cn1c(=O)c2c(ncn2CC2OCCO2)n(C)c1=O [Doxofylline] | 0.561 ± 1 |
| CCOc1ccccc1OC(c1ccccc1)C1CNCCO1 (stereo not given) [Reboxetine mesylate] | -0.676 ± 0.61 |
| CCC(=O)NCC[C@@H]1CCc2ccc3c(c21)CCO3 [Ramelteon (TAK-375)] | 1.29 ± 0.49 |
| Cc1nc2n(c(=O)c1CCN1CCC(c3noc4cc(F)ccc34)CC1)CCCC2O (stereo not given) [Paliperidone (Invega)] | -0.275 ± 0.022 |
| NCCc1ccc(O)c(O)c1 [Dopamine hydrochloride (Inotropin)] | -0.318 ± 0.24 |
| C#CCC(Cc1cnc2nc(N)nc(N)c2n1)c1ccc(C(=O)N[C@@H](CCC(=O)O)C(=O)O)cc1 (stereo not given in full) [Pralatrexate (Folotyn)] | -2.28 ± 0.31 |
| CN(CCOc1ccc(NS(C)(=O)=O)cc1)CCc1ccc(NS(C)(=O)=O)cc1 [Dofetilide (Tikosyn)] | -0.264 ± 1.1 |
| Cc1cc(=O)n(-c2ccccc2)n1C [Antipyrine] | 0.625 ± 0.21 |
| C[C@H](CCC(=O)O)[C@H]1CC[C@H]2[C@@H]3[C@@H](O)C[C@@H]4C[C@H](O)CC[C@]4(C)[C@H]3CC[C@]12C [Ursodiol (Actigal Urso)] | -0.251 ± 0.043 |

| Structure (SMILES) | log2 surviving fraction |
| --- | --- |
| O=S(=O)(O)NC1CCCCC1 [Cyclamic  acid] | 0.667 ± 0.062 |
| COc1ccc2cc1Oc1ccc(cc1)C[C@H]1c3c(cc4c(c3Oc3cc5c(cc3OC)CCN(C)[C@@H]5C2)OCO4)CCN1C [Cepharanthine] | -4.63 ± 5 |
| O=c1[nH]cnc2c1ncn2[C@H]1CC[C@@H](CO)O1 [Didanosine (Videx)] | -0.138 ± 0.09 |
| Fc1ccc([C@@H]2CCNC[C@H]2COc2ccc3c(c2)OCO3)cc1 [Paroxetine HCl] | -5.69 ± 1.4 |
| CC(C)NCC(O)COc1ccc(COCCOC(C)C)cc1 (stereo not given) [Bisoprolol] | -0.612 ± 0.44 |
| CC(=O)O[C@H]1C[C@@H]2CC[C@@H]3[C@H](CC[C@@]4(C)[C@H]3C[C@H]([N+]3(C)CCCCC3)[C@@H]4OC(C)=O)[C@@]2(C)C[C@@H]1N1CCCCC1 [Vecuronium Bromide] | 0.626 ± 0.83 |
| CCCCOc1cc(C(=O)NCCN(CC)CC)c2ccccc2n1 [Dibucaine HCL] | -0.186 ± 0.37 |
| CNC(=O)CN(CCN(CCN(CC(=O)O)CC(=O)NC)CC(=O)O)CC(=O)O.O.[Gd] [Gadodiamide (Omniscan)] | -0.756 ± 0.36 |
| COc1cc2nc(N(C)CCCNC(=O)C3CCCO3)nc(N)c2cc1OC (stereo not given) [Alfuzosin hydrochloride (Uroxatral)] | 0.164 ± 0.63 |
| CCOC(=O)c1c(C)n(C)c2ccc(O)cc12 [Mecarbinate] | 1.23 ± 0.57 |
| COc1ccc(C2CNC(=O)C2)cc1OC1CCCC1 (stereo not given) [Rolipram] | 0.395 ± 0.36 |
| CCC1=C[C@@H]2CN(C1)Cc1c([nH]c3ccccc13)[C@@](C(=O)OC)(c1cc3c(cc1OC)N(C)[C@H]1[C@@](O)(C(=O)OC)[C@H](OC(C)=O)[C@]4(CC)C=CCN5CC[C@]31[C@@H]54)C2 [Vinorelbine (Navelbine)] | -4.9 ± 1.1 |
| CC/C(=C(/CC)c1ccc(O)cc1)c1ccc(O)cc1 [Diethylstilbestrol (Stilbestrol)] | 0.00791 ± 0.077 |
| O=NN(CCCl)C(=O)NC1CCCCC1 [Lomustine (CeeNU)] | -0.286 ± 0.51 |
| COc1cc(/C=C/C(=O)CC(=O)/C=C/c2ccc(O)c(OC)c2)ccc1O [Curcumin] | -0.345 ± 1.1 |
| O=C1NC(=O)C(c2ccccc2)(c2ccccc2)N1 [Phenytoin (Lepitoin)] | -0.461 ± 0.99 |
| CCCC(=O)OCOC(=O)C1=C(C)NC(C)=C(C(=O)OC)C1c1cccc(Cl)c1Cl (stereo not given) [Cleviprex (Clevidipine)] | 1.36 ± 1.1 |
| O=P(O)(O)C(O)(Cn1ccnc1)P(=O)(O)O [Zoledronic Acid (Zoledronate)] | 0.977 ± 0.23 |
| CC1(C)S[C@@H]2[C@H](NC(=O)[C@H](N)c3ccccc3)C(=O)N2[C@H]1C(=O)O [Ampicillin sodium] | -0.465 ± 0.15 |
| Cc1c(C(=O)NN2CCCCC2)nn(-c2ccc(Cl)cc2Cl)c1-c1ccc(Cl)cc1 | -1.28 ± 0.29 |
